# Experimental data as given in the supplement of paper PMC10369915.
# This is one part of the list. No stated cut-off is given here; in the data, active = 3.2 or more and inactive = the rest. Most of these values are background signal.
# Target: SHP2 C-SH2 domain E139D
# Assay: enrichment score (SH2-bound / input frequency) (ratio); bacterial display of known human phosphotyrosine sites (pTyr-Var adds point mutants) read by sequencing; higher = stronger binding; tyrosines were phosphorylated by kinases first
# Conditions: peptide library: pTyr-Var
# 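Further: displayed peptides selected on beads carrying the immobilized SH2 domain, with library peptides lacking any tyrosine serving as negative controls.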
row,Binder,enrichment score
1,IPKTWYSAEQF [CD207_Y217],inactive: 0.987
2,RNDQVYQPLRD [CD3D_Y149],inactive: 0.631
3,GQRDLYSGLNQ [CD3E_Y199],inactive: 1.18
4,GQRDLYSGLNE [CD3E_Y199_Q204E],inactive: 0.664
5,SHLSAYPALEG [CD5_Y465],inactive: 0.753
6,SRLSAYPALEG [CD5_Y465_H461R],inactive: 0.642
7,RDHYGYRQSVT [CD55_Y245],inactive: 0.807
8,GEHSIYSTVNN [CD55_Y266_C267S],inactive: 0.589
9,ENELTYYCYKK [CD59_Y86_C89Y],inactive: 0.945
10,ENELTYFCCKK [CD59_Y86_YF],inactive: 0.566
11,NELTYYCYKKD [CD59_Y87_C89Y],inactive: 0.716
12,NELTFYCCKKD [CD59_Y87_YF],inactive: 0.746
13,VPLLEYYRDIF [CDAN1_Y712],inactive: 1.81
14,VPLLEYYWDIF [CDAN1_Y712_R714W],inactive: 2.97
15,VPLLEYFWDIF [CDAN1_Y712_R714W_YF],active: 5.01
16,VPLLEYFRDIF [CDAN1_Y712_YF],active: 3.65
17,SLQSEYVHYGG [CDC14A_Y591],inactive: 0.536
18,SLQSEYVHFGG [CDC14A_Y591_YF],inactive: 0.827
19,FGDTPYIPFRD [CDC14C_Y132],inactive: 0.935

# Target: SHP2 C-SH2 domain wild-type
# Assay: as above
# Conditions: peptide library: pTyr-Var
row,Binder,enrichment score
1,IPKTWYSAEQF [CD207_Y217],inactive: 0.691
2,RNDQVYQPLRD [CD3D_Y149],inactive: 0.625
3,GQRDLYSGLNQ [CD3E_Y199],inactive: 0.832
4,GQRDLYSGLNE [CD3E_Y199_Q204E],inactive: 0.554
5,SHLSAYPALEG [CD5_Y465],inactive: 0.711
6,SRLSAYPALEG [CD5_Y465_H461R],inactive: 0.475
7,RDHYGYRQSVT [CD55_Y245],inactive: 0.587
8,GEHSIYSTVNN [CD55_Y266_C267S],inactive: 0.915
9,ENELTYYCYKK [CD59_Y86_C89Y],inactive: 1.17
10,ENELTYFCCKK [CD59_Y86_YF],inactive: 0.525
11,NELTYYCYKKD [CD59_Y87_C89Y],inactive: 0.994
12,NELTFYCCKKD [CD59_Y87_YF],inactive: 0.895
13,VPLLEYYRDIF [CDAN1_Y712],inactive: 1.66
14,VPLLEYYWDIF [CDAN1_Y712_R714W],inactive: 2.61
15,VPLLEYFWDIF [CDAN1_Y712_R714W_YF],active: 4.51
16,VPLLEYFRDIF [CDAN1_Y712_YF],inactive: 3.15
17,SLQSEYVHYGG [CDC14A_Y591],inactive: 0.49
18,SLQSEYVHFGG [CDC14A_Y591_YF],inactive: 0.724
19,FGDTPYIPFRD [CDC14C_Y132],inactive: 0.77

# Target: SHP2 N-SH2 domain L43F
# Assay: as above
# Conditions: peptide library: pTyr-Var
row,Binder,enrichment score
1,IPKTWYSAEQF [CD207_Y217],inactive: 0.795
2,RNDQVYQPLRD [CD3D_Y149],inactive: 0.541
3,GQRDLYSGLNQ [CD3E_Y199],inactive: 0.821
4,GQRDLYSGLNE [CD3E_Y199_Q204E],inactive: 0.642
5,SHLSAYPALEG [CD5_Y465],inactive: 0.715
6,SRLSAYPALEG [CD5_Y465_H461R],inactive: 0.532
7,RDHYGYRQSVT [CD55_Y245],inactive: 0.675
8,GEHSIYSTVNN [CD55_Y266_C267S],inactive: 0.814
9,ENELTYYCYKK [CD59_Y86_C89Y],inactive: 0.846
10,ENELTYFCCKK [CD59_Y86_YF],inactive: 0.643
11,NELTYYCYKKD [CD59_Y87_C89Y],inactive: 0.727
12,NELTFYCCKKD [CD59_Y87_YF],inactive: 0.68
13,VPLLEYYRDIF [CDAN1_Y712],inactive: 1.68
14,VPLLEYYWDIF [CDAN1_Y712_R714W],inactive: 3.01
15,VPLLEYFWDIF [CDAN1_Y712_R714W_YF],active: 4.98
16,VPLLEYFRDIF [CDAN1_Y712_YF],active: 3.23
17,SLQSEYVHYGG [CDC14A_Y591],inactive: 0.54
18,SLQSEYVHFGG [CDC14A_Y591_YF],inactive: 0.819
19,FGDTPYIPFRD [CDC14C_Y132],inactive: 0.935

# Target: SHP2 N-SH2 domain T42A
# Assay: as above
# Conditions: peptide library: pTyr-Var
row,Binder,enrichment score
1,IPKTWYSAEQF [CD207_Y217],inactive: 0.68
2,RNDQVYQPLRD [CD3D_Y149],inactive: 0.579
3,GQRDLYSGLNQ [CD3E_Y199],inactive: 0.727
4,GQRDLYSGLNE [CD3E_Y199_Q204E],inactive: 0.555
5,SHLSAYPALEG [CD5_Y465],inactive: 0.658
6,SRLSAYPALEG [CD5_Y465_H461R],inactive: 0.682
7,RDHYGYRQSVT [CD55_Y245],inactive: 0.553
8,GEHSIYSTVNN [CD55_Y266_C267S],inactive: 0.55
9,ENELTYYCYKK [CD59_Y86_C89Y],inactive: 0.737
10,ENELTYFCCKK [CD59_Y86_YF],inactive: 0.635
11,NELTYYCYKKD [CD59_Y87_C89Y],inactive: 0.794
12,NELTFYCCKKD [CD59_Y87_YF],inactive: 0.641
13,VPLLEYYRDIF [CDAN1_Y712],inactive: 1.58
14,VPLLEYYWDIF [CDAN1_Y712_R714W],inactive: 2.58
15,VPLLEYFWDIF [CDAN1_Y712_R714W_YF],active: 3.74
16,VPLLEYFRDIF [CDAN1_Y712_YF],inactive: 2.95
17,SLQSEYVHYGG [CDC14A_Y591],inactive: 0.457
18,SLQSEYVHFGG [CDC14A_Y591_YF],inactive: 0.573
19,FGDTPYIPFRD [CDC14C_Y132],inactive: 0.786

# Target: SHP2 N-SH2 domain T52S
# Assay: as above
# Conditions: peptide library: pTyr-Var
row,Binder,enrichment score
1,IPKTWYSAEQF [CD207_Y217],inactive: 0.656
2,RNDQVYQPLRD [CD3D_Y149],inactive: 0.535
3,GQRDLYSGLNQ [CD3E_Y199],inactive: 0.729
4,GQRDLYSGLNE [CD3E_Y199_Q204E],inactive: 0.682
5,SHLSAYPALEG [CD5_Y465],inactive: 0.672
6,SRLSAYPALEG [CD5_Y465_H461R],inactive: 0.589
7,RDHYGYRQSVT [CD55_Y245],inactive: 0.741
8,GEHSIYSTVNN [CD55_Y266_C267S],inactive: 0.669
9,ENELTYYCYKK [CD59_Y86_C89Y],inactive: 0.882
10,ENELTYFCCKK [CD59_Y86_YF],inactive: 0.644
11,NELTYYCYKKD [CD59_Y87_C89Y],inactive: 0.908
12,NELTFYCCKKD [CD59_Y87_YF],inactive: 0.737
13,VPLLEYYRDIF [CDAN1_Y712],inactive: 1.93
14,VPLLEYYWDIF [CDAN1_Y712_R714W],inactive: 3.02
15,VPLLEYFWDIF [CDAN1_Y712_R714W_YF],active: 4.67
16,VPLLEYFRDIF [CDAN1_Y712_YF],inactive: 3.1
17,SLQSEYVHYGG [CDC14A_Y591],inactive: 0.505
18,SLQSEYVHFGG [CDC14A_Y591_YF],inactive: 0.946
19,FGDTPYIPFRD [CDC14C_Y132],inactive: 0.815

# Target: SHP2 N-SH2 domain wild-type
# Assay: as above
# Conditions: peptide library: pTyr-Var
row,Binder,enrichment score
1,IPKTWYSAEQF [CD207_Y217],inactive: 0.801
2,RNDQVYQPLRD [CD3D_Y149],inactive: 0.634
3,GQRDLYSGLNQ [CD3E_Y199],inactive: 0.772
4,GQRDLYSGLNE [CD3E_Y199_Q204E],inactive: 0.674
5,SHLSAYPALEG [CD5_Y465],inactive: 0.883
6,SRLSAYPALEG [CD5_Y465_H461R],inactive: 0.752
7,RDHYGYRQSVT [CD55_Y245],inactive: 0.97
8,GEHSIYSTVNN [CD55_Y266_C267S],inactive: 0.935
9,ENELTYYCYKK [CD59_Y86_C89Y],inactive: 1.19
10,ENELTYFCCKK [CD59_Y86_YF],inactive: 0.745
11,NELTYYCYKKD [CD59_Y87_C89Y],inactive: 1.06
12,NELTFYCCKKD [CD59_Y87_YF],inactive: 0.93
13,VPLLEYYRDIF [CDAN1_Y712],inactive: 1.48
14,VPLLEYYWDIF [CDAN1_Y712_R714W],inactive: 2.68
15,VPLLEYFWDIF [CDAN1_Y712_R714W_YF],active: 4.04
16,VPLLEYFRDIF [CDAN1_Y712_YF],active: 3.62
17,SLQSEYVHYGG [CDC14A_Y591],inactive: 0.443
18,SLQSEYVHFGG [CDC14A_Y591_YF],inactive: 0.921
19,FGDTPYIPFRD [CDC14C_Y132],inactive: 0.871
